Test results from the RNAGym collection of RNA variant scans (doi:10.1093/nar/gkz1192).
Read counts are not given, so values of variants with three or more changes are uncertain.

B1: CPEB3 Ribozyme (parent)
chain: UAACAGGGGGCCACAGCAGAAGCGUUCACGUCGCAGCCCCUGUCAGAUUCUGGUGAAUCUGCGAAUUCUGCUGUAUAUCUC

Variants of: B1
Experiment: self-cleavage, relative activity (ratio to wild type); higher = more cleavage; in vitro, sequencing
Outline: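 CPEB3 self-cleaving ribozyme mutant libraries were made by rounds of error-prone PCR, barcoded, and transcribed in vitro with T7 RNA polymerase for 5 hours at 37°C. Cleavage occurred during transcription and a 15 min DNase I step before EDTA stop. RNAs were reverse transcribed with template switching and Illumina-sequenced, with DNA sequencing mapping barcodes to variants. Relative activity is the variant's cleaved/total read fraction divided by wild type's (minimum 5 reads), averaged across three batches.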

Variant | self-cleavage
G6A A13U U49C | 0.66
A5U U49C U51C | 0.32
A5U U66C A77G | 0.44
G6A A57G U60G | 0.07
G6A U31C C32U U49C | 0.17
A5U G61C U76C | 0.71
G6A U26C U31C U51G | 0.27
G6U A20G A21G | 0.59
A5U G63U U67A U76C | 0.97
G6A G9A A56G U74C A75G | 0.07
G6A G24A U76C | 0.06
A5U U31C U49A U54A | 0.54
G6U C14U A21G | 0.11
A5U U49A U67C | 0.61
G6U G33A A64G A75C | 0.05
A5U U49C A57G U58A A64C U80C | 0.15
G6U C29A U43A A64G U74C U78A | 0.37
G6A U26C A28G G55U A57G | 0.23
G6A A20G U76C | 0.09
A5U U25C U43C U69C | 0.12
G6A A15U C29U A47G U67C | 0.08

Variant | self-cleavage
A5U G8U G9A A45U C62G | 0.31
G6A A35G U49C | 0.23
A5U U48C U51C | 0.69
G6A A18U U69A | 0.35
A5U U69A U78C | 0.72
G6A A21G A56G G73A | 0.16
A5U U49A U72A U78A | 0.69
A5U G6C A35C U67C U80C | 0.38
A5U U69A A75U | 0.87
G6A A75U U80C | 0.44
A5U U26C A64U U69C | 0.14
G6U A13G G33U A47G | 0.22
G6A C11A A13U A20U G33A U41C U49C | 0.04
G6C A18G A56U U80C | 0.36
A5U C29U U74C A77U | 0.99
A5U C29A U72G | 0.58
G6A A13G C44A U49C A64U A65G U69A | 0.09
A5U G53A A56G U78A | 0.52
A5U C44A A64U | 0.16
G6A U31C U49C U51A U72C | 0.17
G6C A20G U26C U43G U51C A57G A77G | 0

Variant | self-cleavage
G6A A18U C59A | 0.26
G6A C11A U26C A28G U31A U51C U72C | 0
G6A G9A C23U A35G U58C G70A U74G | 0.02
A5U G8C C12A C59U U72A | 0.08
G6A U41A A45U A64U U72C | 0.06
A5U C40G A47U U69C U78C | 0.1
A5U G22C A28G G42A | 0.28
A5U C27U U49C | 0.38
A5U U49C U54C U66C U80A | 0.17
A5U C62U A64G U66C A77U | 0.12
G6A U67C U72A | 0.14
G6A A21G U41A A47U U74C A75C | 0.23
A5U U43C U69A U80C | 0.29
G6U A21G U72C | 0.26
A5U U49G C62U C68A | 0.25
G6C C14G A28G U31A G73A U78C | 0.44
A5U C14A G19A U43C U60A | 0.07
G6A U26C C40A U48C | 0.06
G6A U26A G52A A56U U74C A75G | 0.07
G6A A13C U51C C81A | 0.1
G6A C40U G42A U48C | 0.06

Variant | self-cleavage
A5U U26C U31A A35G A45G A57G G61A | 0.22
G6A U31A U43A U51C | 0.29
A5U U66G U67C | 0.33
G6A C40U U51C A56G | 0.09
G6U U25A U43C | 0.2
G6A G53U U60A | 0.08
A5U U26A A45G | 0.86
G6A C37U U51C | 0.21
G6A A20G C38U A64C U67A | 0.1
G6A C12U A15G A45G U72C | 0.28
G6A U43C A47G U58C | 0.11
G6A G9U U60C C62U U76C C79A | 0.04
A5U C17U U43C | 0.47
A5U U67A A77G | 0.54
A5U A45C U48C | 0.08
A5U G30U G33A U54G U76C | 0.13
G6A A18G U25C U43A U49C | 0.06
G6U A18G U48C U80A | 0.41
A5U U25C U49A U58C U66C A77G | 0.05
A5U G9A A47G U54C | 0.26
